# Among all 340,000 compounds or so, fewer than 10 were called active. This list was built around the results that the source calls inconclusive (neither active nor inactive); the mix of calls is not that of the screen. Calls come from the whole dose curve; as a rule, active = well fitted inhibition curve with a large enough effect in the main read-out, with a control signal flat (not every such curve was filed as active); inconclusive = small, poorly fitted or top-dose-only effect, or effect the other way, or a change in a side signal; inactive = no such curve, though single readings can be large or run the other way. Potencies of inconclusive entries are doubtful fits and often do not repeat. A note “side channel” means that the fit belongs to a control or component signal, not to the main read-out.
# Biological target: Tumor susceptibility gene 101 protein (Homo sapiens) (UniProt Q99816)
# Chain of UniProt Q99816 (Q99816 whole entry, looked up): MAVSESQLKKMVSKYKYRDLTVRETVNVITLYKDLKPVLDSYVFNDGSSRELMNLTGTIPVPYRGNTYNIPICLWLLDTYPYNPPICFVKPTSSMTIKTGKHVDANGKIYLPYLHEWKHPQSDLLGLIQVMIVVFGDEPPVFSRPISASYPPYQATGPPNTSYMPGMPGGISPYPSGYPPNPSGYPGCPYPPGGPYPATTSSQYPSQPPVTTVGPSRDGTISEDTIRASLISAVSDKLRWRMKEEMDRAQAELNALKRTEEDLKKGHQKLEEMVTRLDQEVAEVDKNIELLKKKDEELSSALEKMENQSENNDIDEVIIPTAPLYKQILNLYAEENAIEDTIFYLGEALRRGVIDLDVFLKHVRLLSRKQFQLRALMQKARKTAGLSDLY
# Assay: qHTS Assay for Iinhibitors of HIV-1 Budding by Blocking the Interaction of PTAP/TSG101
# Settings: Fluorescence polarization, FITC-PTAP peptide / Tsg101 binding; series mostly up to 115 µM
# Outline: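 FP read-out: FITC-PTAP peptide, 50 nM final, binding Tsg101 binding domain, 10 uM final; 20 min, r.t.; 10 mM HEPES pH 7.5, 0.15 M NaCl, 0.01% Tween 20, 3 mM EDTA, 0.1 mM TCEP.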
# Potency is the fitted concentration of half-maximal effect; tags give direction and shape of the fitted curve or compound fluorescence and quenching.
row,Structure (SMILES),Potency
1,CCN(CC)c1ccc2cc(C(N)=O)/c(=N\NC(=O)c3ccncc3)oc2c1,"inconclusive: 79.4 µM [fluorescent, side channel, partial curve, poor fit]"
2,CCCNC(=O)c1nc(C)n(-c2cc(Cl)ccc2Cl)n1,"inconclusive: 79.4 µM [fluorescent, side channel, partial curve]"
3,COc1ccc(-n2c(O)c(/C=N/NS(=O)(=O)c3cc(C)ccc3C)c3ccccc3c2=O)cc1OC,"inconclusive: 50.1 µM [fluorescent, side channel, partial curve, poor fit]"
4,CN(C)C(CNC(=O)c1cc(S(=O)(=O)N(C)c2ccc(F)cc2)ccc1Cl)c1cccs1 (centres undefined),inactive
5,CCc1nnc(NC(=O)C2=CCN(S(=O)(=O)c3ccc(F)cc3)CC2)s1,"inconclusive: 89.1 µM [fluorescent, partial curve, poor fit]"
6,Cc1ccc2cc3c(N)c(C(=O)Nc4c(C)[nH]c(=O)[nH]c4=O)sc3nc2c1,"inconclusive: 56.2 µM [fluorescent, side channel, partial curve, poor fit]"
7,Cc1ccc2cc(C#N)c(NCc3ccco3)nc2c1,inactive
8,COc1cc(/C=C/c2[nH]c(=O)[nH]c(=O)c2[N+](=O)[O-])ccc1OCCC(C)C,"inconclusive: 79.4 µM [fluorescent, side channel, partial curve, poor fit]"
9,Cc1cc(Nc2cccc(F)c2)nc(-c2ccccc2O)n1,"inconclusive: 89.1 µM [quencher, side channel, partial curve, poor fit]"
10,COc1cc2c3nnc(-c4ccc(F)cc4)c-3cn(Cc3cccc(F)c3)c2cc1OC,"inconclusive: 56.2 µM [fluorescent, side channel, partial curve, poor fit]"
11,COc1ccc(C2=NC(=O)/C(=C\c3cc(OC)c(OC)c(OC)c3)O2)cc1,"inconclusive: 44.7 µM [fluorescent, side channel, partial curve]"
12,CCN1CCc2c(sc(NC(=O)Nc3ccc(Cl)c(Cl)c3)c2C(N)=O)C1,"inconclusive: 22.4 µM [fluorescent, side channel, full curve]"
13,c1ccc(-c2cn3nc4c(nc3n2)CCCC4)cc1,"inconclusive: 79.4 µM [fluorescent, side channel, partial curve, poor fit]"
14,COc1cc(OC)c(OC)cc1/C=C1\Oc2cc(OCC(=O)N3Cc4ccccc4C[C@H]3C(=O)O)ccc2C1=O,"inconclusive: 12.6 µM [fluorescent, side channel, full curve]"
15,CCOC(=O)c1ccc(/C=C2/C=C(c3ccccc3)N(c3ccc(Cl)c(C(=O)O)c3)C2=O)cc1,"inconclusive: 39.8 µM [fluorescent, side channel, partial curve, poor fit]"
16,CCC(/C=C1\Oc2ccc(OC)cc2N1C)=C\c1sc2ccccc2[n+]1CCCS(=O)(=O)[O-],"inconclusive: 50.1 µM [fluorescent, side channel, partial curve, poor fit]"
17,Cc1cc2c(cc1C)NC(c1c(C)n(C)n(-c3ccccc3)c1=O)C1=C(CC(C)(C)CC1=O)N2 (centres undefined),"inconclusive: 56.2 µM [fluorescent, side channel, partial curve, poor fit]"
18,Cc1nc(NC(=O)c2cccc(-c3cc4ccccc4oc3=O)c2)ccc1Br,inactive
19,CC(C)CCOP(=O)(c1ccc(N(C)C)cc1)C(O)c1c(Cl)cccc1Cl (centres undefined),inactive
20,N#C/C(=C/c1ccc(N2CCCCCC2)o1)c1ccc(F)cc1,"inconclusive: 20 µM [fluorescent, side channel, full curve, poor fit]"
21,CC1=NOC(=O)/C1=C/c1ccc2c(c1)OCO2,"inconclusive: 89.1 µM [fluorescent, side channel, single point]"
22,O=C1S/C(=C\c2ccc(N3CCOCC3)o2)C(=O)N1Cc1c(F)cccc1Cl,"inconclusive: 10 µM [fluorescent, side channel, full curve, poor fit]"
23,CCS(=O)(=O)N1N=C(c2cccc(NS(C)(=O)=O)c2)CC1c1ccc(C)cc1 (centres undefined),"inconclusive: 56.2 µM [fluorescent, side channel, partial curve, poor fit]"
24,CN(C(=O)COC(=O)c1ccc([N+](=O)[O-])cc1N)c1ccccc1,"inconclusive: 79.4 µM [fluorescent, side channel, partial curve, poor fit]"
25,COc1ccc(Cn2c3ccc(OC)cc3c3nc4ccccc4nc32)cc1,"inconclusive: 56.2 µM [fluorescent, side channel, partial curve, poor fit]"
26,COc1ccc(N2C(=O)c3cccc4c(N(C)CCO)ccc(c34)C2=O)cc1,"inconclusive: 56.2 µM [fluorescent, side channel, partial curve, poor fit]"
27,CC(C)(CO)Cc1cc(C(C)(C)C)c(O)c(C(C)(C)C)c1,"inconclusive: 25.1 µM [quencher, side channel, partial curve, poor fit]"

row,Structure (SMILES),Potency
1,Cc1ccc(Oc2cc([N+](=O)[O-])cc3c2C(=O)Nc2ccccc2O3)cc1,"inconclusive: 39.8 µM [fluorescent, side channel, partial curve, poor fit]"
2,CCOC(=O)/C(C#N)=C/c1ccc(N2CCN(Cc3ccccc3)CC2)cc1,"inconclusive: 79.4 µM [fluorescent, side channel, partial curve]"
3,CCCCCCc1cc2cc(-c3nnc(-c4ccccc4)o3)c(=O)oc2cc1O,"inconclusive: 2.82 µM [fluorescent, side channel, partial curve, poor fit]"
4,Oc1ccc2nnc3c(Br)cnn3c2c1,"inconclusive: 50.1 µM [fluorescent, side channel, partial curve, poor fit]"
5,Cc1ccc(CNC(=O)c2cccc3c2C(=O)c2ccc(N4CCC(C)CC4)cc2S3(=O)=O)cc1,"inconclusive: 50.1 µM [fluorescent, side channel, partial curve, poor fit]"
6,CC(C)(C)OC(=O)[C@H](Cc1ccccc1)NC(=O)c1[nH]cnc1C(=O)Nc1ccc(Cl)cc1,"inconclusive: 44.7 µM [quencher, side channel, partial curve, poor fit]"
7,O=[N+]([O-])c1cc(Br)cc(/C=N/n2cnnc2)c1O,"inconclusive: 50.1 µM [falling, partial curve, poor fit]"
8,O=C(O)c1nn(Cc2ncc(-c3cccc(Cl)c3)o2)c(=O)c2ccccc12,inactive
9,Cc1cccc(-n2cc(-c3ccc([N+](=O)[O-])cc3)[nH]c2=S)c1,inactive
10,CCOP(=O)(c1ccc(N(C)C)cc1)C(O)c1ccccc1 (centres undefined),"inconclusive: 2.51 µM [fluorescent, side channel, full curve, poor fit]"
11,O=[N+]([O-])c1ccc(N2CCCCC2)cc1N1CCOCC1,inactive
12,O=c1oc(/C=C/c2ccco2)nc2sc3c(c12)CCC3,"inconclusive: 25.1 µM [fluorescent, side channel, full curve, poor fit]"
13,CCN(CC)c1ccc2c(c1)oc(=O)c1c(Cl)cc(=O)oc12,"inconclusive: 56.2 µM [fluorescent, side channel, partial curve, poor fit]"
14,CCn1c(SCC(=O)Nc2ccc(OC)cc2)nc2nc3c(cc2c1=O)CCCC3,inactive
15,CCc1ccc(Nc2n[n+](-c3ccccc3)c(-c3ccc(N(CC)CC)cc3)s2)cc1,"inconclusive: 44.7 µM [fluorescent, side channel, partial curve, poor fit]"
16,Cc1ccc2nc(-c3ccc(NC(=O)C(C)N4C(=O)c5ccccc5C4=O)cc3)sc2c1 (centres undefined),"inconclusive: 39.8 µM [fluorescent, side channel, single point]"
17,CCC(=O)c1ccc(OCc2ccc(C(=O)c3ccccc3)cc2)cc1,inactive
18,Cc1ccc[n+](-c2nc([O-])sc2C=O)c1,"inconclusive: 56.2 µM [fluorescent, side channel, partial curve, poor fit]"
19,O=C(O)c1ccccc1N/N=C/C1=C(N2CCOCC2)C(=C\c2ccccc2)/CC1,"inconclusive: 89.1 µM [fluorescent, side channel, single point]"
20,O=C(c1ccc(Cl)cc1)N1CCN(C(=O)c2ccco2)CC1,inactive
21,C[n+]1ccc(/C=C/c2c[nH]c3ccc(F)cc23)cc1,"inconclusive: 56.2 µM [fluorescent, side channel, partial curve, poor fit]"
22,O=Cc1ccc(OCCOc2ccc([N+](=O)[O-])cc2)cc1,inactive
23,COc1ccc(OC)c(-c2nnc3n2N=C(c2ccc(OC(F)F)c(OCC4CC4)c2)CS3)c1,inactive
24,COc1ccc(C2C(C#N)=C(SC)NC3=C2C(=O)CC(C)(C)C3)cc1 (centres undefined),inactive
25,Cc1ccccc1-c1ccc(/C=C2/SC(N3CCOCC3)=NC2=O)o1,"inconclusive: 79.4 µM [falling, partial curve, poor fit]"
26,Cc1ccc(-c2nn(-c3ccccc3)cc2/C=C2\SC(=S)N(CCCCCC(=O)O)C2=O)o1,"inconclusive: 56.2 µM [fluorescent, side channel, partial curve, poor fit]"
27,CN1CCS/C1=C/C=C1\SC(=S)N(CC(=O)O)C1=O,"inconclusive: 50.1 µM [fluorescent, side channel, partial curve, poor fit]"

# Source: PubChem BioAssay AID493005 (National Center for Advancing Translational Sciences (NCATS), 2010)
